Here are results for 24 molecules from the supplement of paper PMC4604168 (melanoma cell lines).

The list shows a part of the results. Most values come without repeats; read them as rough.
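Further: cells treated in 1,536-well plates, then fixed and DAPI-stained, with nuclei counted from automated high-throughput microscope images.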

For the test, the system named is COLO800. Put plainly: cell count relative to DMSO control; melanoma cells; higher = more viable cells. The following applies: library dose: standard library concentration; 72 h.
Turning to `Cc1cc(Nc2cc(N3CCN(C)CC3)nc(Sc3ccc(NC(=O)C4CC4)cc3)n2)n[nH]1` [Tozasertib] + CC(=O)O[C@@]12CO[C@@H]1C[C@H](O)[C@@]1(C)C(=O)[C@H](O)C3=C(C)[C@@H](OC(=O)[C@H](O)[C@@H](NC(=O)OC(C)(C)C)c4ccccc4)C[C@@](O)([C@@H](OC(=O)c4ccccc4)[C@H]21)C3(C)C [Docetaxel] (first compound 0.03 µM, partner dose 0.0005 µM), the cell count amounted to 33.9%.

Take `CC[C@]1(O)C[C@H]2CN(CCc3c([nH]c4ccccc34)[C@@](C(=O)OC)(c3cc4c(cc3OC)N(C=O)[C@H]3[C@@](O)(C(=O)OC)[C@H](OC(C)=O)[C@]5(CC)C=CCN6CC[C@]43[C@@H]65)C2)C1` [vincristine] + Oc1nc(-c2ccc(C(F)(F)F)cc2)nc2c1CSCC2 [XAV939] (first compound 0.0005 µM, partner dose 10 µM): the cell count worked out at 67.1%.

`CC[C@]1(O)C[C@H]2CN(CCc3c([nH]c4ccccc34)[C@@](C(=O)OC)(c3cc4c(cc3OC)N(C=O)[C@H]3[C@@](O)(C(=O)OC)[C@H](OC(C)=O)[C@]5(CC)C=CCN6CC[C@]43[C@@H]65)C2)C1` [vincristine] + c1cc(-c2cnn3cc(-c4ccc(OCCN5CCCCC5)cc4)cnc23)ccn1 [Dorsomorphin] (first compound 0.0005 µM, partner dose 2 µM) yielded a cell count of 56.5%.

`Cc1cc(Nc2cc(N3CCN(C)CC3)nc(Sc3ccc(NC(=O)C4CC4)cc3)n2)n[nH]1` [Tozasertib] + COc1ccc(-c2ccc3c(N4CCOCC4)nc(N4C[C@@H](C)O[C@@H](C)C4)nc3n2)cc1CO [KU0063794] (first compound 0.03 µM, partner dose 0.1 µM) displayed a cell count of 70.5%.

On to `CC[C@]1(O)C[C@H]2CN(CCc3c([nH]c4ccccc34)[C@@](C(=O)OC)(c3cc4c(cc3OC)N(C=O)[C@H]3[C@@](O)(C(=O)OC)[C@H](OC(C)=O)[C@]5(CC)C=CCN6CC[C@]43[C@@H]65)C2)C1` [vincristine] + O=C(Nc1cc(C(F)(F)F)cc(C(F)(F)F)c1)c1cc(Cl)ccc1O [IMD0354] (first compound 0.0005 µM, partner dose 0.08 µM), for which the cell count was 79.6%.

In turn, `N#CC[C@H](C1CCCC1)n1cc(-c2ncnc3[nH]ccc23)cn1` [ruxolitinib] + Nc1cccc2c1CN(C1CCC(=O)NC1=O)C2=O [lenalidomide] (first compound 5 µM, partner dose 5 µM) gave a cell count of 114%.

In turn, `CC[C@]1(O)C[C@H]2CN(CCc3c([nH]c4ccccc34)[C@@](C(=O)OC)(c3cc4c(cc3OC)N(C=O)[C@H]3[C@@](O)(C(=O)OC)[C@H](OC(C)=O)[C@]5(CC)C=CCN6CC[C@]43[C@@H]65)C2)C1` [vincristine] + COCC[n+]1c2c(n(Cc3cnccn3)c1C)C(=O)c1ccccc1C2=O [YM155] (first compound 0.0005 µM, partner dose 0.002 µM) returned a cell count of 18.4%.

As to `Cc1cc(Nc2cc(N3CCN(C)CC3)nc(Sc3ccc(NC(=O)C4CC4)cc3)n2)n[nH]1` [Tozasertib] + O=C(CCCCCCC(=O)Nc1ccccc1)NO [vorinostat] (first compound 0.03 µM, partner dose 0.4 µM), the cell count stood at 24.4%.

Consider `N#CC[C@H](C1CCCC1)n1cc(-c2ncnc3[nH]ccc23)cn1` [ruxolitinib] + CN(c1ncccc1CNc1nc(Nc2ccc3c(c2)CC(=O)N3)ncc1C(F)(F)F)S(C)(=O)=O [PF562271] (first compound 5 µM, partner dose 0.4 µM), for which the cell count came out at 79.9%.

`N#CC[C@H](C1CCCC1)n1cc(-c2ncnc3[nH]ccc23)cn1` [ruxolitinib] + CC(=O)O[C@@]12CO[C@@H]1C[C@H](O)[C@@]1(C)C(=O)[C@H](O)C3=C(C)[C@@H](OC(=O)[C@H](O)[C@@H](NC(=O)OC(C)(C)C)c4ccccc4)C[C@@](O)([C@@H](OC(=O)c4ccccc4)[C@H]21)C3(C)C [Docetaxel] (first compound 5 µM, partner dose 0.0005 µM) registered a cell count of 24%.

As to `N#CC[C@H](C1CCCC1)n1cc(-c2ncnc3[nH]ccc23)cn1` [ruxolitinib] + C=C(c1ccc(C(=O)O)cc1)c1cc2c(cc1C)C(C)(C)CCC2(C)C [Bexarotene] (first compound 5 µM, partner dose 10 µM), the cell count came out at 153%.

`CC[C@]1(O)C[C@H]2CN(CCc3c([nH]c4ccccc34)[C@@](C(=O)OC)(c3cc4c(cc3OC)N(C=O)[C@H]3[C@@](O)(C(=O)OC)[C@H](OC(C)=O)[C@]5(CC)C=CCN6CC[C@]43[C@@H]65)C2)C1` [vincristine] + O=S(=O)(c1ccccc1)N(CC(F)(F)F)c1ccc(C(O)(C(F)(F)F)C(F)(F)F)cc1 [T0901317] (first compound 0.0005 µM, partner dose 7 µM) had a cell count of 104%.

In turn, `Cc1cc(Nc2cc(N3CCN(C)CC3)nc(Sc3ccc(NC(=O)C4CC4)cc3)n2)n[nH]1` [Tozasertib] + COc1ccc(C2=N[C@@H](c3ccc(Cl)cc3)[C@@H](c3ccc(Cl)cc3)N2C(=O)N2CCNC(=O)C2)c(OC(C)C)c1 [Nutlin-3] (first compound 0.03 µM, partner dose 0.5 µM) returned a cell count of 50%.

`CC[C@]1(O)C[C@H]2CN(CCc3c([nH]c4ccccc34)[C@@](C(=O)OC)(c3cc4c(cc3OC)N(C=O)[C@H]3[C@@](O)(C(=O)OC)[C@H](OC(C)=O)[C@]5(CC)C=CCN6CC[C@]43[C@@H]65)C2)C1` [vincristine] + CS(=O)(=O)c1ccc(C(=O)Nc2ccc(Cl)c(-c3ccccn3)c2)c(Cl)c1 [vismodegib] (first compound 0.0005 µM, partner dose 5 µM): the cell count was found to be 11%.

For the molecule `CC[C@]1(O)C[C@H]2CN(CCc3c([nH]c4ccccc34)[C@@](C(=O)OC)(c3cc4c(cc3OC)N(C=O)[C@H]3[C@@](O)(C(=O)OC)[C@H](OC(C)=O)[C@]5(CC)C=CCN6CC[C@]43[C@@H]65)C2)C1` [vincristine] + C#Cc1cccc(Nc2ncnc3cc(OCCOC)c(OCCOC)cc23)c1 [erlotinib] (first compound 0.0005 µM, partner dose 4 µM), the cell count turned out to be 24.6%.

In turn, `Cc1cc(Nc2cc(N3CCN(C)CC3)nc(Sc3ccc(NC(=O)C4CC4)cc3)n2)n[nH]1` [Tozasertib] + Cc1cn(-c2cc(NC(=O)c3ccc(C)c(Nc4nccc(-c5cccnc5)n4)c3)cc(C(F)(F)F)c2)cn1 [nilotinib] (first compound 0.03 µM, partner dose 1 µM) registered a cell count of 119%.

Molecule `Cc1cc(Nc2cc(N3CCN(C)CC3)nc(Sc3ccc(NC(=O)C4CC4)cc3)n2)n[nH]1` [Tozasertib] + O=C(O)C(=O)Nc1sc2c(c1C(=O)O)CCNC2 [TCS401] (first compound 0.03 µM, partner dose 8.33333 µM) yielded a cell count of 38.8%.

`Cc1cc(Nc2cc(N3CCN(C)CC3)nc(Sc3ccc(NC(=O)C4CC4)cc3)n2)n[nH]1` [Tozasertib] + O=S(=O)(c1ccccc1)N(CC(F)(F)F)c1ccc(C(O)(C(F)(F)F)C(F)(F)F)cc1 [T0901317] (first compound 0.03 µM, partner dose 7 µM) showed a cell count of 32%.

In turn, `CC[C@]1(O)C[C@H]2CN(CCc3c([nH]c4ccccc34)[C@@](C(=O)OC)(c3cc4c(cc3OC)N(C=O)[C@H]3[C@@](O)(C(=O)OC)[C@H](OC(C)=O)[C@]5(CC)C=CCN6CC[C@]43[C@@H]65)C2)C1` [vincristine] + O=C(/C=C/c1cccnc1)NCCCCC1CCN(C(=O)c2ccccc2)CC1 [FK866] (first compound 0.0005 µM, partner dose 0.05 µM) returned a cell count of 65.2%.

For `Cc1cc(Nc2cc(N3CCN(C)CC3)nc(Sc3ccc(NC(=O)C4CC4)cc3)n2)n[nH]1` [Tozasertib] + OCCn1cc(-c2cnc3nnn(Cc4ccc5ncccc5c4)c3n2)cn1 [PF04217903] (first compound 0.03 µM, partner dose 5 µM), the cell count turned out to be 39.7%.

`CC[C@]1(O)C[C@H]2CN(CCc3c([nH]c4ccccc34)[C@@](C(=O)OC)(c3cc4c(cc3OC)N(C=O)[C@H]3[C@@](O)(C(=O)OC)[C@H](OC(C)=O)[C@]5(CC)C=CCN6CC[C@]43[C@@H]65)C2)C1` [vincristine] + C[C@@H]1CCN(C(=O)CC#N)C[C@@H]1N(C)c1ncnc2[nH]ccc12 [CP690550] (first compound 0.0005 µM, partner dose 5 µM) displayed a cell count of 71.4%.

`Cc1cc(Nc2cc(N3CCN(C)CC3)nc(Sc3ccc(NC(=O)C4CC4)cc3)n2)n[nH]1` [Tozasertib] + CCCCCCCCCCCCCCCCCCOP(=O)([O-])OC1CC[N+](C)(C)CC1 [Perifosine] (first compound 0.03 µM, partner dose 2 µM): the cell count came out at 80.9%.

With `CC[C@]1(O)C[C@H]2CN(CCc3c([nH]c4ccccc34)[C@@](C(=O)OC)(c3cc4c(cc3OC)N(C=O)[C@H]3[C@@](O)(C(=O)OC)[C@H](OC(C)=O)[C@]5(CC)C=CCN6CC[C@]43[C@@H]65)C2)C1` [vincristine] + CCCS(=O)(=O)Nc1ccc(F)c(C(=O)c2c[nH]c3ncc(Cl)cc23)c1F [PLX4720] (first compound 0.0005 µM, partner dose 0.4 µM), the cell count was determined as 120%.

In the case of `Cc1cc(Nc2cc(N3CCN(C)CC3)nc(Sc3ccc(NC(=O)C4CC4)cc3)n2)n[nH]1` [Tozasertib] + Cc1nc(Nc2ncc(C(=O)Nc3c(C)cccc3Cl)s2)cc(N2CCN(CCO)CC2)n1 [dasatanib] (first compound 0.03 µM, partner dose 0.02 µM), the cell count turned out to be 71.2%.
